Data from paper PMC11279629, “Identification of Dihydropyrazolo[1,5-a]pyrazin-4(5H)-ones as Cyclic Products of β-Amidomethyl Vinyl Sulfone Alphavirus Cysteine Protease Inhibitors” (Pharmaceuticals, 2024).

Target: CHIKV nsP2 protease (Chikungunya virus, UniProt Q8JUX6)
Experiment: biochemical

## CCOc1ccccc1-c1cc2n(n1)C(CS(C)(=O)=O)CNC2=O (stereo not shown) [Compound 2, 2-(2-ethoxyphenyl)-7-((methylsulfonyl)methyl)-6,7-dihydropyrazolo[1,5-a]pyrazin-4(5H)-one]
  IC50: > 200 µM
